# The list shows a part of the results.
# Assays:
# Assay in all cases: glycan array binding signal (z-score within array); higher = stronger binding
# Conditions in all cases: glycan notation: IUPAC condensed, linker removed
# [1] = target: Glc(b1-6)Glc
# In short: (§1)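 Negative Z-scores can be read as non-binding. The Z-score is calculated within each array and then averaged across arrays of one protein sequence at different concentrations or buffers and across linkers. Arrays, 3228 in all, were curated from the Consortium for Functional Glycomics database and kept only where the protein sequence was available.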
# [2] = target: GlcA(b1-3)Gal
# In short: as §1
# [3] = target: GlcA(b1-3)GlcNAc
# In short: as §1
# [4] = target: GlcA(b1-6)Gal
# In short: as §1
# [5] = target: GlcA3S(b1-3)Gal(b1-4)GlcNAc(b1-2)Man
# In short: as §1
# [6] = target: GlcA3S(b1-3)Gal(b1-4)GlcNAc(b1-3)Gal(b1-4)Glc
# In short: as §1
# [7] = target: GlcNAc(a1-3)Gal(b1-4)GlcNAc
# In short: as §1
# [8] = target: GlcNAc(a1-4)Gal(b1-3)GlcNAc
# In short: as §1
# [9] = target: GlcNAc(a1-4)Gal(b1-4)GalNAc
# In short: as §1
# [10] = target: GlcNAc(a1-4)Gal(b1-4)GlcNAc
# In short: as §1
# [11] = target: GlcNAc(a1-4)Gal(b1-4)GlcNAc(b1-3)Gal(b1-4)Glc
# In short: as §1
# [12] = target: GlcNAc(a1-4)Gal(b1-4)GlcNAc(b1-3)Gal(b1-4)GlcNAc
# In short: as §1
# [13] = target: GlcNAc(a1-4)Gal(b1-4)GlcNAc(b1-3)Gal(b1-4)GlcNAc(b1-3)Gal(b1-4)GlcNAc
# In short: as §1
# [14] = target: GlcNAc(a1-4)Gal(b1-4)GlcNAc(b1-3)Gal(b1-4)[Fuc(a1-3)]GlcNAc(b1-3)Gal(b1-4)[Fuc(a1-3)]GlcNAc
# In short: as §1
# [15] = target: GlcNAc(a1-6)Gal(b1-4)GlcNAc
# In short: as §1
# [16] = target: GlcNAc(b1-2)Gal(b1-3)GalNAc
# In short: as §1
# [17] = target: GlcNAc(b1-2)Man(a1-3)[GlcNAc(b1-2)Man(a1-6)]Man(b1-4)GlcNAc(b1-4)GlcNAc
# In short: as §1
# [18] = target: GlcNAc(b1-2)Man(a1-3)[GlcNAc(b1-2)Man(a1-6)]Man(b1-4)GlcNAc(b1-4)[Fuc(a1-6)]GlcNAc
# In short: as §1
# [19] = target: GlcNAc(b1-2)Man(a1-3)[GlcNAc(b1-4)][GlcNAc(b1-2)Man(a1-6)]Man(b1-4)GlcNAc(b1-4)GlcNAc
# In short: as §1
# [20] = target: GlcNAc(b1-2)Man(a1-3)[GlcNAc(b1-4)][GlcNAc(b1-2)Man(a1-6)]Man(b1-4)GlcNAc(b1-4)[Fuc(a1-6)]GlcNAc
# In short: as §1
# [21] = target: GlcNAc(b1-2)[GlcNAc(b1-4)]Man(a1-3)[GlcNAc(b1-2)Man(a1-6)]Man(b1-4)GlcNAc(b1-4)GlcNAc
# In short: as §1
# [22] = target: GlcNAc(b1-2)[GlcNAc(b1-4)]Man(a1-3)[GlcNAc(b1-4)][GlcNAc(b1-2)Man(a1-6)]Man(b1-4)GlcNAc(b1-4)GlcNAc
# In short: as §1
# [23] = target: GlcNAc(b1-2)[GlcNAc(b1-4)]Man(a1-3)[GlcNAc(b1-4)][GlcNAc(b1-2)[GlcNAc(b1-6)]Man(a1-6)]Man(b1-4)GlcNAc(b1-4)GlcNAc
# In short: as §1
# [24] = target: GlcNAc(b1-2)[GlcNAc(b1-4)]Man(a1-3)[GlcNAc(b1-4)][GlcNAc(b1-2)[GlcNAc(b1-6)]Man(a1-6)]Man(b1-4)GlcNAc(b1-4)[Fuc(a1-6)]GlcNAc
# In short: as §1
# [25] = target: GlcNAc(b1-2)[GlcNAc(b1-6)]Man(a1-6)[GlcNAc(b1-2)Man(a1-3)]Man(b1-4)GlcNAc(b1-4)GlcNAc
# In short: as §1
# [26] = target: GlcNAc(b1-2)[GlcNAc(b1-6)]Man(a1-6)[GlcNAc(b1-2)Man(a1-3)]Man(b1-4)GlcNAc(b1-4)[Fuc(a1-6)]GlcNAc
# In short: as §1
# [27] = target: GlcNAc(b1-2)[GlcNAc(b1-6)]Man(a1-6)[GlcNAc(b1-4)][GlcNAc(b1-2)Man(a1-3)]Man(b1-4)GlcNAc(b1-4)GlcNAc
# In short: as §1
# [28] = target: GlcNAc(b1-3)Fuc
# In short: as §1
# [29] = target: GlcNAc(b1-3)Gal
# In short: as §1
# [30] = target: GlcNAc(b1-3)Gal(b1-3)GalNAc
# In short: as §1
# [31] = target: GlcNAc(b1-3)Gal(b1-4)Glc
# In short: as §1
# [32] = target: GlcNAc(b1-3)Gal(b1-4)GlcNAc
# In short: as §1
# [33] = target: GlcNAc(b1-3)Gal(b1-4)GlcNAc(b1-2)Man(a1-3)[GlcNAc(b1-3)Gal(b1-4)GlcNAc(b1-2)Man(a1-6)]Man(b1-4)GlcNAc(b1-4)GlcNAc
# In short: as §1
# [34] = target: GlcNAc(b1-3)Gal(b1-4)GlcNAc(b1-2)Man(a1-3)[GlcNAc(b1-3)Gal(b1-4)GlcNAc(b1-2)Man(a1-6)]Man(b1-4)GlcNAc(b1-4)[Fuc(a1-6)]GlcNAc
# In short: as §1
# [35] = target: GlcNAc(b1-3)Gal(b1-4)GlcNAc(b1-2)[GlcNAc(b1-3)Gal(b1-4)GlcNAc(b1-6)]Man(a1-6)[GlcNAc(b1-3)Gal(b1-4)GlcNAc(b1-2)Man(a1-3)]Man(b1-4)GlcNAc(b1-4)GlcNAc
# In short: as §1
# [36] = target: GlcNAc(b1-3)Gal(b1-4)GlcNAc(b1-3)Gal(b1-4)GlcNAc
# In short: as §1
# [37] = target: GlcNAc(b1-3)Gal(b1-4)GlcNAc(b1-3)Gal(b1-4)GlcNAc(b1-2)Man(a1-3)[GlcNAc(b1-3)Gal(b1-4)GlcNAc(b1-3)Gal(b1-4)GlcNAc(b1-2)Man(a1-6)]Man(b1-4)GlcNAc(b1-4)GlcNAc
# In short: as §1
# [38] = target: GlcNAc(b1-3)Gal(b1-4)GlcNAc(b1-3)Gal(b1-4)GlcNAc(b1-2)Man(a1-3)[GlcNAc(b1-3)Gal(b1-4)GlcNAc(b1-3)Gal(b1-4)GlcNAc(b1-2)Man(a1-6)]Man(b1-4)GlcNAc(b1-4)[Fuc(a1-6)]GlcNAc
# In short: as §1
# [39] = target: GlcNAc(b1-3)Gal(b1-4)GlcNAc(b1-3)Gal(b1-4)GlcNAc(b1-2)[GlcNAc(b1-3)Gal(b1-4)GlcNAc(b1-3)Gal(b1-4)GlcNAc(b1-6)]Man(a1-6)[GlcNAc(b1-3)Gal(b1-4)GlcNAc(b1-3)Gal(b1-4)GlcNAc(b1-2)Man(a1-3)]Man(b1-4)GlcNAc(b1-4)[Fuc(a1-6)]GlcNAc
# In short: as §1
# [40] = target: GlcNAc(b1-3)Gal(b1-4)GlcNAc(b1-3)Gal(b1-4)GlcNAc(b1-3)Gal(b1-4)GlcNAc(b1-2)Man(a1-3)[GlcNAc(b1-3)Gal(b1-4)GlcNAc(b1-3)Gal(b1-4)GlcNAc(b1-3)Gal(b1-4)GlcNAc(b1-2)Man(a1-6)]Man(b1-4)GlcNAc(b1-4)GlcNAc
# In short: as §1
# [41] = target: GlcNAc(b1-3)Gal(b1-4)GlcNAc(b1-3)Gal(b1-4)GlcNAc(b1-3)Gal(b1-4)GlcNAc(b1-2)Man(a1-3)[GlcNAc(b1-3)Gal(b1-4)GlcNAc(b1-3)Gal(b1-4)GlcNAc(b1-3)Gal(b1-4)GlcNAc(b1-2)Man(a1-6)]Man(b1-4)GlcNAc(b1-4)[Fuc(a1-6)]GlcNAc
# In short: as §1
# [42] = target: GlcNAc(b1-3)Gal(b1-4)GlcNAc(b1-3)Gal(b1-4)GlcNAc(b1-3)Gal(b1-4)GlcNAc(b1-2)[GlcNAc(b1-3)Gal(b1-4)GlcNAc(b1-3)Gal(b1-4)GlcNAc(b1-3)Gal(b1-4)GlcNAc(b1-6)]Man(a1-6)[GlcNAc(b1-3)Gal(b1-4)GlcNAc(b1-3)Gal(b1-4)GlcNAc(b1-3)Gal(b1-4)GlcNAc(b1-2)Man(a1-3)]Man(b1-4)GlcNAc(b1-4)[Fuc(a1-6)]GlcNAc
# In short: as §1
# [43] = target: GlcNAc(b1-3)Gal(b1-4)GlcNAc(b1-3)Gal(b1-4)GlcNAc(b1-3)Gal(b1-4)GlcNAc(b1-3)Gal(b1-4)GlcNAc(b1-2)Man(a1-3)[GlcNAc(b1-3)Gal(b1-4)GlcNAc(b1-3)Gal(b1-4)GlcNAc(b1-3)Gal(b1-4)GlcNAc(b1-3)Gal(b1-4)GlcNAc(b1-2)Man(a1-6)]Man(b1-4)GlcNAc(b1-4)GlcNAc
# In short: as §1
# [44] = target: GlcNAc(b1-3)Gal(b1-4)GlcNAc(b1-3)Gal(b1-4)GlcNAc(b1-3)Gal(b1-4)GlcNAc(b1-3)Gal(b1-4)GlcNAc(b1-2)Man(a1-3)[GlcNAc(b1-3)Gal(b1-4)GlcNAc(b1-3)Gal(b1-4)GlcNAc(b1-3)Gal(b1-4)GlcNAc(b1-3)Gal(b1-4)GlcNAc(b1-2)Man(a1-6)]Man(b1-4)GlcNAc(b1-4)[Fuc(a1-6)]GlcNAc
# In short: as §1
# [45] = target: GlcNAc(b1-3)Gal(b1-4)GlcNAc(b1-3)Gal(b1-4)GlcNAc(b1-3)Gal(b1-4)GlcNAc(b1-3)Gal(b1-4)GlcNAc(b1-2)[GlcNAc(b1-3)Gal(b1-4)GlcNAc(b1-3)Gal(b1-4)GlcNAc(b1-3)Gal(b1-4)GlcNAc(b1-3)Gal(b1-4)GlcNAc(b1-6)]Man(a1-6)[GlcNAc(b1-3)Gal(b1-4)GlcNAc(b1-3)Gal(b1-4)GlcNAc(b1-3)Gal(b1-4)GlcNAc(b1-3)Gal(b1-4)GlcNAc(b1-2)Man(a1-3)]Man(b1-4)GlcNAc(b1-4)[Fuc(a1-6)]GlcNAc
# In short: as §1
binder,measurement,setting,value
PLU (Photorhabdus luminiscence) (protein) HHHHHHENLYFQSSIVFASIDPRSNPLQTSSQNYVDIPGLKLDVSKYSNSPCLTALITLNIPTPYASGNNFPGGNFAIVTDQGEQLAYGGFTYSSKIPENSGRMPFTLVARYSLASNVSTIKAQWSNIRGSTVHIDSYASISAVIQCNQLV,glycan array binding signal (z-score),[1],-0.288
same,glycan array binding signal (z-score),[2],-0.245
same,glycan array binding signal (z-score),[3],-0.329
same,glycan array binding signal (z-score),[4],-0.269
same,glycan array binding signal (z-score),[5],-0.284
same,glycan array binding signal (z-score),[6],-0.257
same,glycan array binding signal (z-score),[7],-0.248
same,glycan array binding signal (z-score),[8],-0.109
same,glycan array binding signal (z-score),[9],-0.301
same,glycan array binding signal (z-score),[10],-0.277
same,glycan array binding signal (z-score),[11],-0.234
same,glycan array binding signal (z-score),[12],-0.322
same,glycan array binding signal (z-score),[13],-0.367
same,glycan array binding signal (z-score),[14],-0.226
same,glycan array binding signal (z-score),[15],-0.285
same,glycan array binding signal (z-score),[16],-0.248
same,glycan array binding signal (z-score),[17],-0.291
same,glycan array binding signal (z-score),[18],-0.212
same,glycan array binding signal (z-score),[19],-0.223
same,glycan array binding signal (z-score),[20],-0.337
same,glycan array binding signal (z-score),[21],-0.253
same,glycan array binding signal (z-score),[22],-0.365
same,glycan array binding signal (z-score),[23],-0.322
same,glycan array binding signal (z-score),[24],-0.254
same,glycan array binding signal (z-score),[25],-0.254
same,glycan array binding signal (z-score),[26],-0.102
same,glycan array binding signal (z-score),[27],-0.19
same,glycan array binding signal (z-score),[28],-0.327
same,glycan array binding signal (z-score),[29],-0.354
same,glycan array binding signal (z-score),[30],-0.274
same,glycan array binding signal (z-score),[31],-0.235
same,glycan array binding signal (z-score),[32],-0.292
same,glycan array binding signal (z-score),[33],-0.212
same,glycan array binding signal (z-score),[34],-0.192
same,glycan array binding signal (z-score),[35],-0.248
same,glycan array binding signal (z-score),[36],-0.263
same,glycan array binding signal (z-score),[37],-0.156
same,glycan array binding signal (z-score),[38],-0.213
same,glycan array binding signal (z-score),[39],-0.158
same,glycan array binding signal (z-score),[40],-0.065
same,glycan array binding signal (z-score),[41],-0.148
same,glycan array binding signal (z-score),[42],-0.258
same,glycan array binding signal (z-score),[43],-0.221
same,glycan array binding signal (z-score),[44],-0.215
same,glycan array binding signal (z-score),[45],-0.155
